Test results: PubChem BioAssay AID1347071 (National Center for Advancing Translational Sciences (NCATS), 2019)
Hit rate of the full screen: of about 410,000 compounds, about 260 (0.063%) were called active. Inconclusive means that the source gave no clear call. Such entries were picked first, then a sample of the others. Calls follow the shape of the dose curve; as a rule, active = well fitted activation curve with a large enough effect; inconclusive = small, poorly fitted or top-dose-only effect; inactive = no such curve, though single readings can be large or run the other way. No potency is given beside an inconclusive call; the fits are too rough.

Assay: qHTS for compounds that reverse cellular toxicity of Amyloid beta (A-beta) peptide in yeast: Primary Screen; also: nearly all actives have a fitted effect of over 55% in size
Conditions: yeast expressing A-beta42, growth rescue, OD600, 48 h; growth rescue: at 46.1 µM (top of the series), 0% DMSO, 100% iron-clioquinol control
How it was run: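 Yeast growth medium received pinned compounds, then yeast cells expressing toxic A-beta were added; plates incubated at 30 C for 48 hr. Growth read as absorbance at 600 nm, normalized to DMSO and equimolar FeCl3 plus clioquinol controls.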
Potency is read from the fitted curve at half-maximal effect; tags tell the direction and shape of the fitted curve.

| SMILES | Potency |
| --- | --- |
| CCCN(CC1CC1)C(=S)NC(=O)c1cc(Br)ccc1Cl | inconclusive [activator, partial curve, poor fit] |
| Cc1cc(C)c(S(=O)(=O)NCCn2c(C)cc3ccccc32)c(C)c1 | active: 7.94 µM |
| CCC(=O)Nc1c(C(=O)Nc2ccc3c(c2)OCCO3)oc2ccccc12 | inactive |
| COc1ccc(-c2cc(OC(=O)c3ccccc3Cl)c3c(C)oc(C)c3c(=O)c2)cc1OC | inactive |
| Cc1ccc(-c2nnc(SCC(=O)NC(C)(C)C)nc2-c2ccc(C)cc2)cc1 | inactive |
| Cn1sc(=O)c2cc(S(=O)(=O)NC3CC3)ccc21 | inconclusive [activator, single point] |
| COc1ccc(NC(=O)COc2ccc(C)c(C)c2)cc1S(=O)(=O)N1CCCCC1 | inconclusive [activator, single point] |
| Cc1ccc(NC(=O)COc2ccccc2C#N)cc1S(=O)(=O)N1CCCCCC1 | inactive |
| CC(Sc1nnnn1-c1ccccc1)C(=O)Nc1ccccc1-c1ccccc1 (stereo not given) | inconclusive [activator, single point] |
| CCN(C(=O)CN1C(=O)NC2(CCCC2)C1=O)c1nc2c(C)cccc2s1 | inconclusive [activator, single point] |
| Cc1cc(C)cc(OCCNC(=O)CCc2ccccc2)c1 | inconclusive [activator, single point] |
| Cc1sc2ncnc(SCC(=O)N3c4ccccc4Sc4ccc(Cl)cc43)c2c1C | inactive |
| CCCCCCCCN1C(=O)[C@H](CC(=O)NCc2ccc(OC)c(OC)c2)C[C@@]2(C(=O)OC)CC(C)(C)CC=C12 | inactive |
| CN1CC2([N+](=O)[O-])CC=C(Oc3ccccc3)C([N+](=O)[O-])(C1)C2 (stereo not given) | inconclusive [activator, partial curve, poor fit] |
| CCOC(=O)c1ccc(NC(=S)NCCc2ccccc2F)cc1 | inconclusive [activator, single point] |
| COc1cccc2sc3ccc(C#Cc4ccc(N)cc4)cc3c(=O)c12 | inactive |
| Cn1cnnc1SCCn1c(N2CCCCC2)nc2c1c(=O)[nH]c(=O)n2C | inconclusive [activator, partial curve] |
| c1ccc(-c2noc(-c3ccccc3-c3ccccc3)n2)cc1 | inactive |
| CC(C)c1ccc(C(C)NC(=S)NC2CCCCC2)cc1 (stereo not given) | inconclusive [activator, partial curve, poor fit] |
| COc1cc(C)nc(-c2csc(C)n2)n1 | inconclusive [activator, partial curve, poor fit] |
| COc1cccc2cc(C(=O)CS(=O)(=O)c3ccc(C)cc3)c(=O)oc12 | inconclusive [activator, partial curve, poor fit] |
| COc1cc(OC)cc(C(=O)NCCSCc2ccc(Cl)cc2)c1 | inconclusive [activator, partial curve] |
| O=C(NC(=S)Nc1ccccc1Cl)C1CC1 | inactive |
| Cc1nnsc1S(=O)(=O)Cc1ccccc1Cl | inconclusive [activator, partial curve] |
| Cc1c(C(=O)OCC2CCCCC2)[nH]c2c1C(=O)CC(c1ccccc1Cl)C2 (stereo not given) | inactive |

| SMILES | Potency |
| --- | --- |
| COc1ccc(N2CCN(C(=O)CCC(=O)N3CCOc4ccc(C)cc43)CC2)cc1 | inactive |
| COc1cccc(NC(=O)N(CCC(C)C)C2CCN(C(C)C)CC2)c1 | inactive |
| CC(C)NC(=O)Cn1c(=O)cnc2ccccc21 | inconclusive [activator, single point] |
| CN(Cc1ccc2c(c1)CCCN2C)C(=O)[C@H]1O[C@@H](n2cnc3c(N)ncnc32)[C@H](O)[C@@H]1O | inactive |
| Cc1coc2cc3oc(=O)c(CCC(=O)N4C[C@H]5C[C@@H](C4)c4cccc(=O)n4C5)c(C)c3cc12 | inactive |
| Cc1ccc(NC(=O)CCC(=O)NNC(=S)Nc2ccccc2)c(C)c1 | inactive |
| O=C(/C=C/c1ccco1)Nc1nc(-c2ccccn2)cs1 | inconclusive [activator, partial curve, poor fit] |
| COc1ccc(CN(C)C(=S)Nc2ccc(OC(F)F)cc2)cc1 | inconclusive [activator, single point] |
| COc1ccc(CCNC(=O)c2cnn3ccccc23)c(OC)c1OC | inconclusive [activator, partial curve, poor fit] |
| O=C(Cn1nc(-c2ccc(Cl)cc2)c2ccccc2c1=O)Nc1cccc(C(F)(F)F)c1 | inactive |
| COc1cccc(Nc2nc3ccccc3c3nncn23)c1 | inconclusive [activator, partial curve, poor fit] |
| CC(Oc1ccc(Cl)cc1)c1ccn[nH]1 (stereo not given) | inconclusive [activator, single point] |
| Cc1ccc(C(=O)NC(=S)NNC(=O)c2ccc([N+](=O)[O-])cc2)cc1 | inconclusive [activator, partial curve, poor fit] |
| CC(=O)c1ccc(NC(=O)CSc2cn(CC(=O)N(C(C)C)C(C)C)c3ccccc23)cc1 | inactive |
| COc1ccc([N+](=O)[O-])cc1NC(=O)CC(C)c1ccccc1 (stereo not given) | inconclusive [activator, partial curve] |
| O=C(Nc1ccccc1C(=O)N1CCN(c2cccc(Cl)c2)CC1)C1=CSCCO1 | inconclusive [activator, single point] |
| Cc1ccc(Cl)cc1NC(=O)COC(=O)C1CCCC1 | active: 5.62 µM |
| Cc1cnc(C=O)c2cccc([N+](=O)[O-])c12 | inactive |
| Cc1cc(Cl)ccc1OCC(=O)NCCOc1nc(N2CCCCC2)nc(N2CCOCC2)n1 | inactive |
| COc1ccc(NS(=O)(=O)c2ccc3[nH]c(=O)ccc3c2)cc1OC | inactive |
| COc1cccc(C2/C(=C(\O)c3ccc4c(c3)OCCO4)C(=O)C(=O)N2CCN(C)C)c1 (stereo not given) | inactive |
| CCn1c2ccccc2c2nc3cc(OC)c(OC)cc3nc21 | inactive |
| CC(C)c1ccc(NC(=S)N2CCCC2)cc1 | inconclusive [activator, single point] |
| CCOC(=O)c1c(-c2ccc(OC)cc2)csc1NC(=O)CSc1nnc(C)c(=O)[nH]1 | inactive |
| O=C(COC(=O)c1ccccc1Br)NCCc1ccc(F)cc1 | inactive |

| SMILES | Potency |
| --- | --- |
| Cc1onc(-c2ccccc2)c1C(=O)N/N=C/c1c[nH]c2ccccc12 | inconclusive [activator, single point] |
| C=CCn1c(CCSCc2ccccc2)n[nH]c1=S | inconclusive [activator, single point] |
| COc1ccc(CCNC(=O)CN(c2ccc(OC)c(OC)c2)S(=O)(=O)c2ccccc2)cc1OC | inconclusive [activator, partial curve, poor fit] |
| O=C(COc1ccc(/C=N/NS(=O)(=O)c2ccccc2)cc1)N1CCOCC1 | inconclusive [activator, partial curve, poor fit] |
| N#Cc1ccc2ccn(CC(=O)NC3CCCCCC3)c2c1 | inactive |
| COC(=O)c1ccc(CSc2nc(C(F)F)cc(C)c2C#N)o1 | inactive |
| COCCCNC(=O)/C(C#N)=C/c1ccc(F)cc1 | inconclusive [activator, single point] |
| COc1ccc(C(=O)N=c2sc3c(C)ccc(OC)c3n2C)cc1 | inactive |
| Cc1cc(C)nc(Nc2ccc(C)c([N+](=O)[O-])c2)n1 | inactive |
| COc1cnc(-c2ccccn2)nc1Oc1c(C)cccc1C | inconclusive [activator, single point] |
| Cc1[nH]nc(N)c1-c1ccccc1 | inconclusive [activator, partial curve, poor fit] |
| CCOC(=O)C1CCN(C(=O)CN(c2cc(Cl)ccc2OC)S(=O)(=O)c2ccccc2)CC1 | inconclusive [activator, partial curve, poor fit] |
| COc1cccc(OC)c1C(=O)Nc1nnc(-c2ccc(F)cc2)s1 | inconclusive [activator, partial curve, poor fit] |
| CC(C)(C)OC(=O)NCCCC[C@H](NC(=O)c1[nH]cnc1C(=O)Nc1ccccc1)C(=O)OC(C)(C)C | inactive |
| O=C(Nc1ccc2c(c1)CCC2)c1cc(S(=O)(=O)Nc2ccc(F)cc2)c(Cl)cc1Cl | inactive |
| CCOC(=O)C(C(=O)OCC)C(c1ccccc1)N1CCN(c2ccccc2)CC1 (stereo not given) | inactive |
| COc1ccc(S(=O)(=O)N2CCOC23CCN(C(=O)c2c(F)cccc2Cl)CC3)cc1 | inconclusive [activator, single point] |
| COc1cc(/C=C/C(=O)Nc2nnc(C(C)(C)C)s2)cc(OC)c1OC | inactive |
| CCC(=O)Nc1cccc(-c2cn3c(C)csc3n2)c1 | inactive |
| COc1cccc(NC(=O)CSc2ccccn2)c1 | inconclusive [activator, partial curve, poor fit] |
| O=C1c2ccccc2S(=O)(=O)c2cc(N3CCN(C(=O)c4ccccc4)CC3)ccc21 | inactive |
| CC(C)(C)C(=O)NC(=S)Nc1ccc(C(F)(F)F)cc1 | active: 12.6 µM |
| CC(=O)c1ccc(Nc2ccc(-c3ccccc3C)nn2)cc1 | inconclusive [activator, single point] |
| O=C(c1cc2ccccc2cc1O)N1CCN(c2cccc(Cl)c2)CC1 | inconclusive [activator, full curve] |
| CC1(C)Oc2ccc(NC(=O)C3COc4ccccc4O3)cc2O1 (stereo not given) | inactive |
